Measured values: the supplement of paper PMC4604168 (melanoma cell lines)
The other results are listed elsewhere or left out. Most values come without repeats; read them as rough.

Key:
Test in all cases: cell count relative to DMSO control; melanoma cells; higher = more viable cells
Settings in all cases: library dose: standard library concentration; 72 h
SkMel28 = system: SkMel28
SkMel2 = system: SkMel2
SkMel30 = system: SkMel30
SkMel5 = system: SkMel5
UACC257 = system: UACC257
UACC62 = system: UACC62
WM115 = system: WM115
WM1716 = system: WM1716
WM1745 = system: WM1745
WM3526 = system: WM3526
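Also: cells treated in 1,536-well plates, then fixed and DAPI-stained, with nuclei counted from automated high-throughput microscope images.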

SMILES | cell count (SkMel28) | cell count (SkMel2) | cell count (SkMel30) | cell count (SkMel5) | cell count (UACC257) | cell count (UACC62) | cell count (WM115) | cell count (WM1716) | cell count (WM1745) | cell count (WM3526)
C=C(c1ccc(C(=O)O)cc1)c1cc2c(cc1C)C(C)(C)CCC2(C)C [Bexarotene] + COCC[n+]1c2c(n(Cc3cnccn3)c1C)C(=O)c1ccccc1C2=O [YM155] (first compound 10 µM, partner dose 0.002 µM) | 72.3% | 81.7% | 112% | 64.6% | 27.7% | 71% | 116% | 76.4% | 92.4% | 86.9%
CS(=O)(=O)c1ccc(C(=O)Nc2ccc(Cl)c(-c3ccccn3)c2)c(Cl)c1 [vismodegib] + Cc1ccc(NC(=O)c2cccc(N(C)C)c2)cc1NC(=O)c1ccc(O)cc1 [ZM336372] (first compound 5 µM, partner dose 10 µM) | 154% | 106% | 107% | 105% | 101% | 81.6% | 98% | 135% | 97% | 95.2%
CN(c1ncccc1CNc1nc(Nc2ccc3c(c2)CC(=O)N3)ncc1C(F)(F)F)S(C)(=O)=O + CCCS(=O)(=O)Nc1ccc(F)c(C(=O)c2c[nH]c3ncc(Cl)cc23)c1F [PLX4720] (first compound 0.4 µM, partner dose 0.4 µM) | 38.5% | 102% | 81.7% | 63.7% | 89.3% | 48.5% | 63.5% | 52.2% | 68.1% | 64.6%
NC1(c2ccc(-c3nc4ccn5c(=O)[nH]nc5c4cc3-c3ccccc3)cc2)CCC1 + CN(NC(=O)CC(=O)NN(C)C(=S)c1ccccc1)C(=S)c1ccccc1 [STA4783] (first compound 2 µM, partner dose 0.03 µM) | 51.9% | 62.7% | 76.2% | 59.8% | 83.2% | 43.7% | 32.9% | 59.6% | 20.6% | 59.7%
NC1(c2ccc(-c3nc4ccn5c(=O)[nH]nc5c4cc3-c3ccccc3)cc2)CCC1 + C#Cc1cccc(Nc2ncnc3cc(OCCOC)c(OCCOC)cc23)c1 [erlotinib] (first compound 2 µM, partner dose 4 µM) | 49.2% | 66.1% | 76.6% | 57.7% | 94.6% | 53.1% | 70.7% | 88% | 55.4% | 62.7%
NC1(c2ccc(-c3nc4ccn5c(=O)[nH]nc5c4cc3-c3ccccc3)cc2)CCC1 + Nc1cccc2c1CN(C1CCC(=O)NC1=O)C2=O [lenalidomide] (first compound 2 µM, partner dose 5 µM) | 75.1% | 101% | 98.5% | 83.7% | 80.7% | 61.1% | 98.2% | 99.7% | 99% | 91.6%
CCCS(=O)(=O)Nc1ccc(F)c(C(=O)c2c[nH]c3ncc(Cl)cc23)c1F + OCCn1cc(-c2cnc3nnn(Cc4ccc5ncccc5c4)c3n2)cn1 [PF04217903] (first compound 0.4 µM, partner dose 5 µM) | 52.1% | 101% | 96.3% | 74.2% | 95.8% | 71.9% | 68.8% | 57.3% | 85.8% | 55.3%
NC1(c2ccc(-c3nc4ccn5c(=O)[nH]nc5c4cc3-c3ccccc3)cc2)CCC1 + CC(=O)c1c(C)c2cnc(Nc3ccc(N4CCNCC4)cn3)nc2n(C2CCCC2)c1=O [palbociclib] (first compound 2 µM, partner dose 0.2 µM) | 30% | 59.3% | 59.1% | 48.9% | 83.9% | 55.4% | 57.2% | 36.5% | 67% | 44.8%
CN(c1ncccc1CNc1nc(Nc2ccc3c(c2)CC(=O)N3)ncc1C(F)(F)F)S(C)(=O)=O + COc1ccc2c(c1)CCC1C2CCC2(C)C(NCCCCCCN3C(=O)C=CC3=O)CCC12 [U73122] (first compound 0.4 µM, partner dose 2 µM) | 90.7% | 103% | 78.8% | 90.2% | 83.8% | 75.4% | 79.1% | 84.9% | – | 98.4%
CS(=O)(=O)c1ccc(C(=O)Nc2ccc(Cl)c(-c3ccccn3)c2)c(Cl)c1 [vismodegib] + COC(=O)c1sccc1S(=O)(=O)Nc1ccc(Nc2ccccc2)cc1OC [GSK0660] (first compound 5 µM, partner dose 5 µM) | 112% | 117% | 121% | 85.1% | 103% | 78.1% | 110% | 110% | – | 104%
CN(c1ncccc1CNc1nc(Nc2ccc3c(c2)CC(=O)N3)ncc1C(F)(F)F)S(C)(=O)=O + Oc1nc(-c2ccc(C(F)(F)F)cc2)nc2c1CSCC2 [XAV939] (first compound 0.4 µM, partner dose 10 µM) | 68.7% | 91.1% | 103% | 56.6% | 84.2% | 78.7% | 108% | 75.8% | – | 127%
C=C(c1ccc(C(=O)O)cc1)c1cc2c(cc1C)C(C)(C)CCC2(C)C [Bexarotene] + c1cc(-c2cnn3cc(-c4ccc(OCCN5CCCCC5)cc4)cnc23)ccn1 [Dorsomorphin] (first compound 10 µM, partner dose 2 µM) | 84.9% | 80.9% | 104% | 56.9% | 72.6% | 68.2% | 71.1% | 80.7% | – | 75.8%
C=C(c1ccc(C(=O)O)cc1)c1cc2c(cc1C)C(C)(C)CCC2(C)C [Bexarotene] + Oc1cc(-c2nc(-c3ccccc3)[nH]c2-c2ccncc2)ccc1Cl [L779450] (first compound 10 µM, partner dose 1 µM) | 40.5% | 41.2% | 96.5% | 67.4% | 121% | 57.5% | 61.4% | 84.2% | – | 57.4%
CS(=O)(=O)c1ccc(C(=O)Nc2ccc(Cl)c(-c3ccccn3)c2)c(Cl)c1 [vismodegib] + CC(C)C[C@H](NC(=O)[C@H](Cc1ccccc1)NC(=O)c1cnccn1)B(O)O [Bortezomib] (first compound 5 µM, partner dose 0.005 µM) | 26.4% | 36.4% | 26.3% | 31.6% | 79.7% | 45.2% | 31% | 25.4% | 17.1% | 25.1%
CS(=O)(=O)c1ccc(C(=O)Nc2ccc(Cl)c(-c3ccccn3)c2)c(Cl)c1 [vismodegib] + CC(C)CCN1c2nc(Nc3cc(F)c(O)c(F)c3)ncc2N(C)C(=O)C1C [BID1870] (first compound 5 µM, partner dose 1 µM) | 59.9% | 73% | 84.5% | 70.4% | 89.9% | 53.3% | 95.6% | 94.4% | – | 75.4%
C=C(c1ccc(C(=O)O)cc1)c1cc2c(cc1C)C(C)(C)CCC2(C)C [Bexarotene] + OCc1c[nH]c2ccccc12 [Indole-3-carbinol] (first compound 10 µM, partner dose 4 µM) | 74.3% | 90.9% | 101% | 106% | 94.6% | 94.3% | 117% | 84.9% | 119% | 106%
CS(=O)(=O)c1ccc(C(=O)Nc2ccc(Cl)c(-c3ccccn3)c2)c(Cl)c1 [vismodegib] + COc1ccc2c(c1)CCC1C2CCC2(C)C(NCCCCCCN3C(=O)C=CC3=O)CCC12 [U73122] (first compound 5 µM, partner dose 2 µM) | 120% | 120% | 82.6% | 95.8% | 97% | 56.3% | 77.3% | 95.8% | – | 109%
CCCS(=O)(=O)Nc1ccc(F)c(C(=O)c2c[nH]c3ncc(Cl)cc23)c1F + COCC[n+]1c2c(n(Cc3cnccn3)c1C)C(=O)c1ccccc1C2=O [YM155] (first compound 0.4 µM, partner dose 0.002 µM) | 44% | 38.7% | 72.1% | 38.7% | 36.9% | 62% | 61.6% | 66.2% | 88.2% | 39.3%
CN(c1ncccc1CNc1nc(Nc2ccc3c(c2)CC(=O)N3)ncc1C(F)(F)F)S(C)(=O)=O + Cc1cc([N+](=O)[O-])ccc1NS(=O)(=O)c1cc(Cl)ccc1Cl [FH535] (first compound 0.4 µM, partner dose 5 µM) | 50.7% | 67% | 66.7% | 57.1% | 56.2% | 100% | 70.2% | 65.3% | – | 68.5%
C=C(c1ccc(C(=O)O)cc1)c1cc2c(cc1C)C(C)(C)CCC2(C)C [Bexarotene] + CCCCCCCCCCCC1=C(O)C(=O)C=C(O)C1=O [Embelin] (first compound 10 µM, partner dose 6 µM) | 90.9% | 91.4% | 131% | 94.3% | 83.9% | 96.3% | 96.5% | 79% | – | 91.9%
CS(=O)(=O)c1ccc(C(=O)Nc2ccc(Cl)c(-c3ccccn3)c2)c(Cl)c1 [vismodegib] + COc1ccc(-c2ccc3c(N4CCOCC4)nc(N4C[C@@H](C)O[C@@H](C)C4)nc3n2)cc1CO [KU0063794] (first compound 5 µM, partner dose 0.1 µM) | 89.9% | 74.3% | 94.8% | 72% | 95.7% | 87% | 98.8% | 103% | – | 91.7%
C=C(c1ccc(C(=O)O)cc1)c1cc2c(cc1C)C(C)(C)CCC2(C)C [Bexarotene] + Oc1nc(-c2ccc(C(F)(F)F)cc2)nc2c1CSCC2 [XAV939] (first compound 10 µM, partner dose 10 µM) | 83.4% | 106% | 92% | 77.8% | 74% | 87.3% | 94.2% | 47.9% | – | 117%
CN(c1ncccc1CNc1nc(Nc2ccc3c(c2)CC(=O)N3)ncc1C(F)(F)F)S(C)(=O)=O + c1cc(-c2cnn3cc(-c4ccc(OCCN5CCCCC5)cc4)cnc23)ccn1 [Dorsomorphin] (first compound 0.4 µM, partner dose 2 µM) | 59.8% | 59.6% | 95.7% | 54.3% | 64.1% | 69.8% | 55.9% | 58.1% | – | 70.8%
